The supplement of paper PMC8728848
Some of the results follow.

What was measured:
Experiment in all cases: glycan array binding signal (z-score within array); higher = stronger binding
Details in all cases: glycan notation: IUPAC condensed, linker removed
[1] = target: Fuc(a1-2)[Gal(a1-3)]Gal(b1-4)GlcNAc(b1-2)Man(a1-3)[Fuc(a1-2)[Gal(a1-3)]Gal(b1-4)GlcNAc(b1-2)Man(a1-6)]Man(b1-4)GlcNAc(b1-4)[Fuc(a1-6)]GlcNAc
Outline: (§1)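 Columns mapping to the same glycan were averaged after glycan names were converted to IUPAC-condensed notation. The data come from 3228 arrays in the Consortium for Functional Glycomics database, limited to those with an available protein sequence. Binding is reported as a within-array Z-score averaged across arrays of one protein sequence and across linkers.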

[2] = target: Fuc(a1-2)[Gal(a1-3)]Gal(b1-4)GlcNAc(b1-3)GalNAc
Outline: as §1

[3] = target: Fuc(a1-2)[Gal(a1-3)]Gal(b1-4)GlcNAc(b1-3)[Fuc(a1-2)[Gal(a1-3)]Gal(b1-4)GlcNAc(b1-6)]GalNAc
Outline: as §1

[4] = target: Fuc(a1-2)[Gal(a1-3)]Gal(b1-4)GlcNAc(b1-6)GalNAc
Outline: as §1

[5] = target: Fuc(a1-2)[Gal(a1-3)]Gal(b1-4)[Fuc(a1-3)]Glc
Outline: as §1

[6] = target: Fuc(a1-2)[Gal(a1-3)]Gal(b1-4)[Fuc(a1-3)]GlcNAc
Outline: as §1

[7] = target: Fuc(a1-2)[Gal(a1-3)]Gal(b1-4)[Fuc(a1-3)]GlcNAc(b1-3)GalNAc
Outline: as §1

[8] = target: Fuc(a1-2)[Gal(a1-4)]Gal(b1-4)GlcNAc
Outline: as §1

[9] = target: Fuc(a1-2)[GalNAc(a1-3)]Gal
Outline: as §1

[10] = target: Fuc(a1-2)[GalNAc(a1-3)]Gal(b1-3)GalNAc(a1-3)[Fuc(a1-2)]Gal(b1-4)GlcNAc
Outline: as §1

[11] = target: Fuc(a1-2)[GalNAc(a1-3)]Gal(b1-3)GalNAc(b1-3)Gal(a1-4)Gal(b1-4)Glc
Outline: as §1

[12] = target: Fuc(a1-2)[GalNAc(a1-3)]Gal(b1-3)GlcNAc
Outline: as §1

[13] = target: Fuc(a1-2)[GalNAc(a1-3)]Gal(b1-3)GlcNAc(b1-2)Man(a1-3)[Fuc(a1-2)[GalNAc(a1-3)]Gal(b1-3)GlcNAc(b1-2)Man(a1-6)]Man(b1-4)GlcNAc(b1-4)GlcNAc
Outline: as §1

[14] = target: Fuc(a1-2)[GalNAc(a1-3)]Gal(b1-3)GlcNAc(b1-2)Man(a1-3)[Fuc(a1-2)[GalNAc(a1-3)]Gal(b1-3)GlcNAc(b1-2)Man(a1-6)]Man(b1-4)GlcNAc(b1-4)[Fuc(a1-6)]GlcNAc
Outline: as §1

[15] = target: Fuc(a1-2)[GalNAc(a1-3)]Gal(b1-3)GlcNAc(b1-3)GalNAc
Outline: as §1

[16] = target: Fuc(a1-2)[GalNAc(a1-3)]Gal(b1-3)GlcNAc(b1-6)GalNAc
Outline: as §1

[17] = target: Fuc(a1-2)[GalNAc(a1-3)]Gal(b1-4)Glc
Outline: as §1

[18] = target: Fuc(a1-2)[GalNAc(a1-3)]Gal(b1-4)GlcNAc
Outline: as §1

[19] = target: Fuc(a1-2)[GalNAc(a1-3)]Gal(b1-4)GlcNAc(b1-2)Man
Outline: as §1

[20] = target: Fuc(a1-2)[GalNAc(a1-3)]Gal(b1-4)GlcNAc(b1-2)Man(a1-3)[Fuc(a1-2)[GalNAc(a1-3)]Gal(b1-4)GlcNAc(b1-2)Man(a1-6)]Man(b1-4)GlcNAc(b1-4)GlcNAc
Outline: as §1

[21] = target: Fuc(a1-2)[GalNAc(a1-3)]Gal(b1-4)GlcNAc(b1-2)Man(a1-3)[Fuc(a1-2)[GalNAc(a1-3)]Gal(b1-4)GlcNAc(b1-2)Man(a1-6)]Man(b1-4)GlcNAc(b1-4)[Fuc(a1-6)]GlcNAc
Outline: as §1

[22] = target: Fuc(a1-2)[GalNAc(a1-3)]Gal(b1-4)GlcNAc(b1-3)Gal(b1-4)GlcNAc
Outline: as §1

[23] = target: Fuc(a1-2)[GalNAc(a1-3)]Gal(b1-4)GlcNAc(b1-3)Gal(b1-4)GlcNAc(b1-3)Gal(b1-4)GlcNAc
Outline: as §1

[24] = target: Fuc(a1-2)[GalNAc(a1-3)]Gal(b1-4)GlcNAc(b1-3)GalNAc
Outline: as §1

[25] = target: Fuc(a1-2)[GalNAc(a1-3)]Gal(b1-4)GlcNAc(b1-3)[Fuc(a1-2)[GalNAc(a1-3)]Gal(b1-4)GlcNAc(b1-6)]GalNAc
Outline: as §1

[26] = target: Fuc(a1-2)[GalNAc(a1-3)]Gal(b1-4)GlcNAc(b1-6)GalNAc
Outline: as §1

[27] = target: Fuc(a1-2)[GalNAc(a1-3)]Gal(b1-4)[Fuc(a1-3)]GlcNAc
Outline: as §1

[28] = target: Fuc(a1-2)[GalNAc(a1-3)]Gal(b1-4)[Fuc(a1-3)]GlcNAc(b1-3)GalNAc
Outline: as §1

[29] = target: Fuc(a1-2)[GalNAc(a1-4)]Gal(b1-4)GlcNAc
Outline: as §1

[30] = target: Fuc(a1-2)[GalNAc(b1-3)]Gal
Outline: as §1

B1: Cohesin-hDC-ASGPR (Homo sapiens) (protein)
chain: LDDLDAVRIKVDTVNAKPGDTVRIPVRFSGIPSKGIANCDFVYSYDPNVLEIIEIEPGDIIVDPNPDKSFDTAVYPDRKIIVFLFAEDSGTGAYAITKDGVFATIVAKVKEGAPNGLSVIKFVEVGGFANNDLVEQKTQFFDGGANVGDTTEPATPTTPVTTPTTTDDLDAASQNSKFQRDLVTLRTDFSNFTSNTVAEIQALTSQGSSLEETIASLKAEVEGFKQERQAGVSELQEHTTQKAHLGHCPHCPSVCVPVHSEMLLRVQQLVQDLKKLTCQVATLNNNASTEGTCCPVNWVEHQDSCYWFSHSGMSWAEAEKYCQLKNAHLVVINSREEQNFVQKYLGSAYTWMGLSDPEGAWKWVDGTDYATGFQNWKPGQPDDWQGHGLGGGEDCAHFHPDGRWNDDVCQRPYHWVCEAGLGQTSQESHHHHHH
- glycan array binding signal (z-score) [1]: -0.281
- glycan array binding signal (z-score) [2]: -0.507
- glycan array binding signal (z-score) [3]: -0.356
- glycan array binding signal (z-score) [4]: -0.493
- glycan array binding signal (z-score) [5]: -0.481
- glycan array binding signal (z-score) [6]: -0.392
- glycan array binding signal (z-score) [7]: -0.481
- glycan array binding signal (z-score) [8]: -0.495
- glycan array binding signal (z-score) [9]: 2.81
- glycan array binding signal (z-score) [10]: 3.55
- glycan array binding signal (z-score) [11]: 1.97
- glycan array binding signal (z-score) [12]: 2.5
- glycan array binding signal (z-score) [13]: 2.83
- glycan array binding signal (z-score) [14]: 1.89
- glycan array binding signal (z-score) [15]: 0.375
- glycan array binding signal (z-score) [16]: 2.41
- glycan array binding signal (z-score) [17]: 2.4
- glycan array binding signal (z-score) [18]: 2.16
- glycan array binding signal (z-score) [19]: 2.03
- glycan array binding signal (z-score) [20]: 2.39
- glycan array binding signal (z-score) [21]: 1.92
- glycan array binding signal (z-score) [22]: 2.14
- glycan array binding signal (z-score) [23]: 1.93
- glycan array binding signal (z-score) [24]: 0.315
- glycan array binding signal (z-score) [25]: 2.2
- glycan array binding signal (z-score) [26]: 2.58
- glycan array binding signal (z-score) [27]: 2.71
- glycan array binding signal (z-score) [28]: -0.402
- glycan array binding signal (z-score) [29]: 3.15
- glycan array binding signal (z-score) [30]: 2.42
